This assay has as its target DrDXPS (H304A) (Deinococcus radiodurans, UniProt Q9RUB5, H304A). Conditions: site-directed mutagenesis study.

Consider 2 compounds from publication PMC9491098, “Discovery of novel drug-like antitubercular hits targeting the MEP pathway enzyme DXPS by strategic application of ligand-based virtual screening” (Chemical Science, 2022).

As for `OCc1cn(Cc2ccc(Cl)c(Cl)c2)c2ccccc12` [Compound 7], the “activity against DrDXPS H304A mutant” value is reported as “retained some activity”.

With `Cc1ncc(Cc2csc(CCO)c2C)c(N)n1` [DZT, deazathiamine, reference compound], the “activity against DrDXPS H304A mutant” value is “completely lost its activity”.
